Data published in paper PMC3291536.
Results are given in words; binding and its absence hold for the method and conditions named. In cells and extracts the contact can be indirect. Some results given as binding are weak or reduced against the parent protein; the word gives no strength.

Sequences of proteins named here, by UniProt entry; tags and fusion partners are left off.
UniProt Q13127: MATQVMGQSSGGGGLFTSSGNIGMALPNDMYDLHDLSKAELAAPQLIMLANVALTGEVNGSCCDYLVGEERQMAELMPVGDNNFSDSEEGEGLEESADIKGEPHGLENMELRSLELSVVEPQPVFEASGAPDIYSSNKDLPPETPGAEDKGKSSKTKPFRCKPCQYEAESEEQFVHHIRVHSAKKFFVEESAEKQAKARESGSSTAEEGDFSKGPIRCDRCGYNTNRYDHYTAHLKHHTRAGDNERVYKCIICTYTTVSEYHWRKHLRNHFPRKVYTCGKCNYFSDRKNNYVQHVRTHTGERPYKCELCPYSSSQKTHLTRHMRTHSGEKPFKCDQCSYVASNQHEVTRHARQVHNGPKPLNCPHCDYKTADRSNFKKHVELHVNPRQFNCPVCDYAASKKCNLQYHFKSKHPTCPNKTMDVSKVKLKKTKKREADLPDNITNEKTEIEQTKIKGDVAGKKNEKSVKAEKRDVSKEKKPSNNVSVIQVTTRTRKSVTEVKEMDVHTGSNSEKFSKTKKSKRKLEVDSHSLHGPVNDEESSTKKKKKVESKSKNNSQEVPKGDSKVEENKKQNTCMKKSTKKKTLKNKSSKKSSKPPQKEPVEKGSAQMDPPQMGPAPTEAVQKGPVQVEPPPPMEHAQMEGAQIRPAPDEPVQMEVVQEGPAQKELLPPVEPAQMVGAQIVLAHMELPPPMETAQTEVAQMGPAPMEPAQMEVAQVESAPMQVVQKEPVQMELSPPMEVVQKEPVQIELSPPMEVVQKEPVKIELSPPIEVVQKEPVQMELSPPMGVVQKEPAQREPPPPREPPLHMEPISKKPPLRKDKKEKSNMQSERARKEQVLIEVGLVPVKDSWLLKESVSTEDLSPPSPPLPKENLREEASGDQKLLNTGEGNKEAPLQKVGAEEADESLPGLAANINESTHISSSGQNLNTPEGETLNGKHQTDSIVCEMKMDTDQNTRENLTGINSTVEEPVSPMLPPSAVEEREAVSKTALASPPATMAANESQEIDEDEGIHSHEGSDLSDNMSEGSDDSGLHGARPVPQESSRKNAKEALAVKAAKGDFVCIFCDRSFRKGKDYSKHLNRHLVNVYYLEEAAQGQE
UniProt Q8VIG1: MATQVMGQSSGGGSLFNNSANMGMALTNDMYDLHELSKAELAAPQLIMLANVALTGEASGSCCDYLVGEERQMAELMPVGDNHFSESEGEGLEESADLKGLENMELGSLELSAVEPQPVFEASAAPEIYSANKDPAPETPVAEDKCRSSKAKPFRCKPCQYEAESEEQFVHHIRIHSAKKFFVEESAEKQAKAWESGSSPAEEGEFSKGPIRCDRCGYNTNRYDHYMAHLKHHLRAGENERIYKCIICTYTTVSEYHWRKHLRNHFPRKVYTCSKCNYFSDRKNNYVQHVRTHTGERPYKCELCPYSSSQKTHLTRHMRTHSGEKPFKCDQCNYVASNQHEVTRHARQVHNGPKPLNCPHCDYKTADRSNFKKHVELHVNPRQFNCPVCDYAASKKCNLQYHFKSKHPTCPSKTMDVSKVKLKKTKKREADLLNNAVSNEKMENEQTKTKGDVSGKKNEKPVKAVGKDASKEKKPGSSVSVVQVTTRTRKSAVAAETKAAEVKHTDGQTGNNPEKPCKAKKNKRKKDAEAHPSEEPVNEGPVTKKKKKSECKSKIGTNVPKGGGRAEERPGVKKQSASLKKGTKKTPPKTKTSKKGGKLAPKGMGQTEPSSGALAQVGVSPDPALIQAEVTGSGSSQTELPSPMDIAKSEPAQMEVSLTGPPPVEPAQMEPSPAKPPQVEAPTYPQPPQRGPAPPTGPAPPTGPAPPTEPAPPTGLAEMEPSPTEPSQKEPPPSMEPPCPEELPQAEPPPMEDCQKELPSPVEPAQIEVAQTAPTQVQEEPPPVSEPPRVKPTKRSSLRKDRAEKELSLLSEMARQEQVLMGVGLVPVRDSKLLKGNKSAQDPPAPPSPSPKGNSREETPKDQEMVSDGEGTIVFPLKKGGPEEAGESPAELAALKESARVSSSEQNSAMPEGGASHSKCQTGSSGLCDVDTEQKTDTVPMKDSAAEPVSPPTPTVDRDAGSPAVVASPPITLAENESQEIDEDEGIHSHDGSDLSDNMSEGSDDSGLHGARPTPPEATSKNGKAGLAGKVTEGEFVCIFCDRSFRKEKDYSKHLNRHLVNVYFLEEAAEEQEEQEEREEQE
UniProt Q6W2J9: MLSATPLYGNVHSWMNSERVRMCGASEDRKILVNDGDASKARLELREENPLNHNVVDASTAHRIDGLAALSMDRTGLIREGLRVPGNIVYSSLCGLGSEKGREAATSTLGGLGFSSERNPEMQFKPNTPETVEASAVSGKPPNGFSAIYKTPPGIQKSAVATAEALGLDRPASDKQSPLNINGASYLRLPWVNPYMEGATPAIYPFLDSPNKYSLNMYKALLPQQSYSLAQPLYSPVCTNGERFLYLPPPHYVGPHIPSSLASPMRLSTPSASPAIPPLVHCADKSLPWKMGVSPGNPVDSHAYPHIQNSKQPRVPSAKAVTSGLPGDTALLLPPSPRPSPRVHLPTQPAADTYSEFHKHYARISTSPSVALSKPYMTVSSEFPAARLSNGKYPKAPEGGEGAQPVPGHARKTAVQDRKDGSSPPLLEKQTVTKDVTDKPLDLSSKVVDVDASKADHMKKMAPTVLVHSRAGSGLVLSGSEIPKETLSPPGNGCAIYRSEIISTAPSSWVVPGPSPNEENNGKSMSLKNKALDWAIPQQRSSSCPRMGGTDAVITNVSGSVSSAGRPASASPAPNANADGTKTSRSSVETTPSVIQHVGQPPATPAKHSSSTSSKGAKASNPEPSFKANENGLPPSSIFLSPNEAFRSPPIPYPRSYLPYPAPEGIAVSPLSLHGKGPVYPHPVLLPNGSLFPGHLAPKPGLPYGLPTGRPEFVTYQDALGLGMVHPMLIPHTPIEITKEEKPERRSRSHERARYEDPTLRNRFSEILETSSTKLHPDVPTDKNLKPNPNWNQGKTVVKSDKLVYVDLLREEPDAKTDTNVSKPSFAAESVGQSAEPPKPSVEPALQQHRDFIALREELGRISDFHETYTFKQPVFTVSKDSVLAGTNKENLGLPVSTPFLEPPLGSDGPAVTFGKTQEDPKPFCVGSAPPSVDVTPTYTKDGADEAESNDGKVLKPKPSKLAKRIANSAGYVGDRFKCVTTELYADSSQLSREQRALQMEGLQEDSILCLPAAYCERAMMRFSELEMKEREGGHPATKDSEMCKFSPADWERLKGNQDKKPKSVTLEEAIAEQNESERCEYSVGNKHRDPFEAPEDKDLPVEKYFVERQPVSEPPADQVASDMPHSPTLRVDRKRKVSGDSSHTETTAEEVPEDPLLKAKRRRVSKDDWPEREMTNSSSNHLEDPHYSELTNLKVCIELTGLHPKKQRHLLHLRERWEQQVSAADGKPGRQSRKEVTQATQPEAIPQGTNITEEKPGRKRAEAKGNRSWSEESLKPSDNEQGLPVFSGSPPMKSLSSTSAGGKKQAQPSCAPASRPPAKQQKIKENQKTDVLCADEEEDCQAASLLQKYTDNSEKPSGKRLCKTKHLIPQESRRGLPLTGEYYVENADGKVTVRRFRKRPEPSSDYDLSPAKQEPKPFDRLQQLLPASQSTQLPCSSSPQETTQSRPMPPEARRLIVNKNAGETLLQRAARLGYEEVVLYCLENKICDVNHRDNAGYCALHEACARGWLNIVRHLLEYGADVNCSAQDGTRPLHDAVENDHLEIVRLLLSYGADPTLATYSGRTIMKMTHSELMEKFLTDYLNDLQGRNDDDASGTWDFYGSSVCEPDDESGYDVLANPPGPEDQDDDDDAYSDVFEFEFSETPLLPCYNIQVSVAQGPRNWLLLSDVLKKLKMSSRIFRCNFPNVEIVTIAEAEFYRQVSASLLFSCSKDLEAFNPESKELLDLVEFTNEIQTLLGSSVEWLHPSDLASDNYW
UniProt O75530: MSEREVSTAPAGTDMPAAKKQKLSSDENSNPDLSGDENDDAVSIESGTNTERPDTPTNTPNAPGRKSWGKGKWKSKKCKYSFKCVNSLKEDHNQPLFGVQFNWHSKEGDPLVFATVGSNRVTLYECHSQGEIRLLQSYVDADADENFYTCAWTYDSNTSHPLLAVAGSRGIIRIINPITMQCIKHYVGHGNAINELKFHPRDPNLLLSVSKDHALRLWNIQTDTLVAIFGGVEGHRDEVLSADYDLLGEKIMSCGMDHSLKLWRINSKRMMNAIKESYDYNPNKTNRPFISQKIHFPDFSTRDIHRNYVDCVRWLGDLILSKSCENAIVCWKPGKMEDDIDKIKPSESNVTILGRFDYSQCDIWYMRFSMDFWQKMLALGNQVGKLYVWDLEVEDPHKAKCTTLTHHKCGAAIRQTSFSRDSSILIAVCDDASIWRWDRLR
UniProt O95931: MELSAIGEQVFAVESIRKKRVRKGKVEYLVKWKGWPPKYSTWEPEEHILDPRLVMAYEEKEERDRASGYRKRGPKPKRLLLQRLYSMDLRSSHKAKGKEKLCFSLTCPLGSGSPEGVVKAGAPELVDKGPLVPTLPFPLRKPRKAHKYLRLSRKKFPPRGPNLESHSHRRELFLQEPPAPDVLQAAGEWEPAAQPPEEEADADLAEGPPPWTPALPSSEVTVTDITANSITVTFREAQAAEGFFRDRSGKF
UniProt O75461: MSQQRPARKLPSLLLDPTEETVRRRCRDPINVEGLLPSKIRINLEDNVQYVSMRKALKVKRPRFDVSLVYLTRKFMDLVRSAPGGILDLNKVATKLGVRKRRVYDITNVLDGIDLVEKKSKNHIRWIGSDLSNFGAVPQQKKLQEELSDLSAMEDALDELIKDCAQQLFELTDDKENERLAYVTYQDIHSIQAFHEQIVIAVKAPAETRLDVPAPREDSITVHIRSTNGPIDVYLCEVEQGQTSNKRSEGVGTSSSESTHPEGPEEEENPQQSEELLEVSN
UniProt Q15022: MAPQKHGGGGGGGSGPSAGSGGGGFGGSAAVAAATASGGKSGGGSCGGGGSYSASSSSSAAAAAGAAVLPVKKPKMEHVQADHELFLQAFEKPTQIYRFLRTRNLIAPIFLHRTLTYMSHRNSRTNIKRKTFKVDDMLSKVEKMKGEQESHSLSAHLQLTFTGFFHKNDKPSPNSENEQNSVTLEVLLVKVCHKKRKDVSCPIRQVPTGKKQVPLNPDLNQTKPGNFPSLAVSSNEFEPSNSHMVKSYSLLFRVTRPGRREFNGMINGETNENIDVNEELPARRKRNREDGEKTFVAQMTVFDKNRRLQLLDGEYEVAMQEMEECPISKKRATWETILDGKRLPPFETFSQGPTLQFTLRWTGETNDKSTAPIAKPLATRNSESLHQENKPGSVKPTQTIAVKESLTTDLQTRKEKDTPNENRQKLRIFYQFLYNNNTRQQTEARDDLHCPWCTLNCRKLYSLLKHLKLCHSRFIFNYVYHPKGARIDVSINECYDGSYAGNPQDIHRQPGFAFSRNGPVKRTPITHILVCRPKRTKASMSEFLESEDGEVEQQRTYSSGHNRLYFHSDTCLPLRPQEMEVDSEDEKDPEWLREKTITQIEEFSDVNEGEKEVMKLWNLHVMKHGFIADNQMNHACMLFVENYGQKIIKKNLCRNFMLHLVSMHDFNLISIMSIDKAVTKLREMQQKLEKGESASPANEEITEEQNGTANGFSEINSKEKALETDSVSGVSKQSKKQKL
UniProt Q9BSM1: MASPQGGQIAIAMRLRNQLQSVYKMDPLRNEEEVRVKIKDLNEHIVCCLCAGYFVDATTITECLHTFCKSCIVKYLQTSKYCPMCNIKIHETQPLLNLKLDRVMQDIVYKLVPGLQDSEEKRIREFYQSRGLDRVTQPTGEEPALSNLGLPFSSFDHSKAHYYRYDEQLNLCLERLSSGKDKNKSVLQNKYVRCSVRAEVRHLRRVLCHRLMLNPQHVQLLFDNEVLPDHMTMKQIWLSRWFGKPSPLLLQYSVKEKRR
UniProt Q99496: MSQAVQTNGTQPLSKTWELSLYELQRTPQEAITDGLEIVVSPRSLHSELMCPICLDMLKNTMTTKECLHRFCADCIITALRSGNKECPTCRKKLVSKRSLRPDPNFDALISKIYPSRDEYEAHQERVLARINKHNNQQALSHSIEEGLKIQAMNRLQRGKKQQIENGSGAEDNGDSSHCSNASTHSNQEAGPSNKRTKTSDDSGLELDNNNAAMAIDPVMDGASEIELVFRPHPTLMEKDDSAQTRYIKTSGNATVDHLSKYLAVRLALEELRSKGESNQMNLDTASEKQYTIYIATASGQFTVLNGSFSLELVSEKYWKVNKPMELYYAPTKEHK
UniProt P35226: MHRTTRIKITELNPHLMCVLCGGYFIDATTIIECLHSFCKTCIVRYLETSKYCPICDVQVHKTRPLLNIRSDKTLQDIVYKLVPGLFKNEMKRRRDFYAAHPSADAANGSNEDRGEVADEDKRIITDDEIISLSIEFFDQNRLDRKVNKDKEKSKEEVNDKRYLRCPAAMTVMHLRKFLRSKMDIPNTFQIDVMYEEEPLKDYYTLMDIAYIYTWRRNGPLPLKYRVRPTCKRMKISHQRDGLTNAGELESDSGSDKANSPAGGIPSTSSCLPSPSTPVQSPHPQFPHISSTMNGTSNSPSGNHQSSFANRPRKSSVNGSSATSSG

Legend:
[1] = target: REST (Neuron-Restrictive Silencing Factor) (human (endogenous in NT2-D1 and HEK293)) (UniProt Q13127); experiment: co-IP; anti-REST or control IgG cross-linked to protein A-Sepharose; pooled Superose 6 fractions of NT2-D1 nuclear extract (pool 1: F7–9; pool 2: F11–13; pool 3: F21–22); Western blotting
Flag-Ha-REST = Flag-Ha-REST (UniProt Q13127); experiment: co-IP; anti-Flag IP from lysates of HEK293 cells expressing Flag-Ha-REST alone or with GAL4-RNF2 or with HA-EED, EZH2 and SUZ12; immunoprecipitates incubated with or without RNase or ethidium bromide; Western blotting
[2] = target: Rest (mouse) (mouse (endogenous in mES cells)) (UniProt Q8VIG1); experiment: co-IP; anti-Rest or control IgG on pooled size-exclusion fractions (1: F8–10; 2: F11–13; 3: F22) of nuclear extracts from Wt, Eed−/− or Rnf2−/− mES cells; Western blotting

Row | Substance | binding [1] | further results
1 | BCOR (from UniProt Q6W2J9 1-1755) | no binding | –
2 | HA-EED (from UniProt O75530 1-441) | – | binding (Flag-Ha-REST): binds
3 | CBX7 (from UniProt O95931 1-251) | binds | –
4 | E2F6 (from UniProt O75461 1-281) | no binding | –
5 | Rnf2 (mouse) (from UniProt Q9CQJ4 1-336) | – | binding [2]: binds
6 | SUZ12 (expressed in HEK293 with HA-EED and EZH2) (from UniProt Q15022 1-739) | – | binding (Flag-Ha-REST): binds
7 | Suz12 (mouse) (from UniProt Q80U70 1-741) | – | binding [2]: binds
8 | NSPC1 (from UniProt Q9BSM1 1-259) | binds | –
9 | GAL4-RNF2 (from UniProt Q99496 1-336) | – | binding (Flag-Ha-REST): binds

Second part, led by results:

Row | binding [1] | Substance | further results
10 | binds | BMI1 (from UniProt P35226 1-326) | –
11 | no binding | HP1γ (from UniProt Q13185 1-183) | –
12 | binds | RNF2 (from UniProt Q99496 1-336) | –
13 | binds | SUZ12 (from UniProt Q15022 1-739) | –
